# Experimental data: paper PMC4336329 (PLoS ONE, 2015)
# The whole screen tested about 310,000 compounds, of which about 14,000 (4.5%) showed an effect of 50% or more. Effects have a minus sign here. This is one part of the list.
# Biological target: human ether-à-go-go-related gene (hERG) potassium channel (human, UniProt Q12809)
# Assay: primary screen, population patch clamp on CHO cells stably expressing hERG
# 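Note: peak tail current of the secondary pulse compared with the same well before compound.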
# Sequence of human ether-à-go-go-related gene (hERG) potassium channel (Q12809 whole entry, looked up): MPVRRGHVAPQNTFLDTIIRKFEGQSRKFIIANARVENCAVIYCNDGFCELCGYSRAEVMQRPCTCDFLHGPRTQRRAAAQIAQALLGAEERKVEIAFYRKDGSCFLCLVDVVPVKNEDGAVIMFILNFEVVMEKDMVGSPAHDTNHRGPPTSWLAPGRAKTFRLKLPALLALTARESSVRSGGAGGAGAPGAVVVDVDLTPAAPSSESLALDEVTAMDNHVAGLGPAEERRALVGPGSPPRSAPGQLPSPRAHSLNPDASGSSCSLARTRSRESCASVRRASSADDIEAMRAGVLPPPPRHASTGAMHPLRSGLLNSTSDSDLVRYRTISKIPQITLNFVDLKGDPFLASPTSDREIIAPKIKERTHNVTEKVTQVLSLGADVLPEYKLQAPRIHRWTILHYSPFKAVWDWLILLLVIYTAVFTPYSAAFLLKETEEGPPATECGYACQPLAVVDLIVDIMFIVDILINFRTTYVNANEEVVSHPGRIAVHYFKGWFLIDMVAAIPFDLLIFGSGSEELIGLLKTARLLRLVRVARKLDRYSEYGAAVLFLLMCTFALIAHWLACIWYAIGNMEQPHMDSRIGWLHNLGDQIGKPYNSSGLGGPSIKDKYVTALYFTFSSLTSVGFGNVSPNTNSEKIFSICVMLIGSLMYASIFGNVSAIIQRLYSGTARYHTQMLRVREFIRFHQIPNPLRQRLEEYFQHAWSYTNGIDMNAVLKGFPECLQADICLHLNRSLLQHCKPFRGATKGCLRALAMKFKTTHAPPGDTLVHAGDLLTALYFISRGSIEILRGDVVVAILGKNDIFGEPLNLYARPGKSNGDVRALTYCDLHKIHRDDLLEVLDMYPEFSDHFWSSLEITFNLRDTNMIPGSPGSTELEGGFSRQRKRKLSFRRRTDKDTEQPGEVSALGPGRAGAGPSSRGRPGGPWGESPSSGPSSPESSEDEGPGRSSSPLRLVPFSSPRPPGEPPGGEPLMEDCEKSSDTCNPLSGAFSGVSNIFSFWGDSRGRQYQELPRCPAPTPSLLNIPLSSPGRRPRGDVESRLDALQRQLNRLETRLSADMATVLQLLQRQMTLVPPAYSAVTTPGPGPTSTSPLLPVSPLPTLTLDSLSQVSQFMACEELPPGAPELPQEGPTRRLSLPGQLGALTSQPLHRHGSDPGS
row,SMILES,"hERG current change (%, negative = inhibition) at 10uM [%]"
1,O=C(c1cnn2cccnc12)N1CCN(c2ccccc2)CC1,20
2,CCOC(=O)C1(Cc2cccc(OC)c2)CCN(Cc2ccccc2)CC1,-40.3
3,COc1ccc(-c2[nH]ncc2CN(C)Cc2nonc2C)c(OC)c1,16.8
4,CCOC(=O)C1=C(C)Nc2nc(SCC)[nH]c(=O)c2C1c1ccncc1 (centres unmarked),-7.65
5,CC(C)NC(=O)NC(=O)COC(=O)CCOc1ccccc1,2.07
6,COCCNC(=O)COc1cc(=O)n(C)c2ccccc12,-17
7,CCOP(=O)(c1ccccc1)C(O)c1ccc([N+](=O)[O-])cc1 (centres unmarked),15.8
8,Cc1cccc(-n2nc(CC#N)c(C#N)c2N)c1,27.5
9,CCCOc1ccc(/C=N/NC(=O)CSCc2ccc([N+](=O)[O-])cc2)cc1OCC,-32.4
10,CS/C(=C/[N+](=O)[O-])Nc1cccc2c1C(C)CC2(C)C (centres unmarked),-10.1
11,CCN(CC)C(=O)C1CCCN(Cc2ccccc2C(F)(F)F)C1 (centres unmarked),-0.468
12,CCC(C)[C@H]1CN=C(N)N1CCc1cccc(F)c1 (some centres unmarked),-14.5
13,CN(C)C(=O)CSc1nnc(-c2ccc(S(=O)(=O)N3CCCC3)cc2)n1C,20.5
14,COc1ccc(CNC(=O)CNS(=O)(=O)c2cccc(C#N)c2)cc1OC,16.2
15,CN(C)NC(=S)NC1(C)CCS(=O)(=O)C1 (centres unmarked),2.72
16,Cn1ncc(Cl)c1C(=O)NNC(=O)Nc1cccc2ccccc12,7.09
17,CCOC(=O)N1CCC(N(CCN(C)C)C(=S)Nc2ccccc2OCC)CC1,-8.05
18,CCNS(=O)(=O)c1ccc(Br)c(OC)c1,10.4
19,Cn1c(NC(=O)c2ccccc2)c(-c2cccs2)c(=O)c2ccccc21,7.07
20,CCc1cccc2cc3c(N)c(C(=O)Nc4ccc(S(=O)(=O)N5CCCC5)cc4)sc3nc12,2.65
21,CC(=O)Nc1sc(N)nc1-c1ccccc1,2.61
22,Cc1ccc(C2=CSC3=NNC4(CCCCC4)NN23)cc1,4.72
23,CCOc1cc(/C=C2\CCCc3c2nc2ccccc2c3C(=O)O)ccc1OC,8.29
24,CCOc1ccc(-c2nnc(SCC(=O)N3CCCC3)o2)cc1,6.58
25,COc1ccc(NC(=O)CCc2nc(-c3ccccc3F)no2)cc1,-2.68
26,CC(/C=C1\SC(=S)N(CC(=O)O)C1=O)=C\c1ccccc1,11.5
